The whole screen tested about 330,000 compounds, of which about 300 (0.091%) were called active. Inconclusive means that the source gave no clear call. Such entries were picked first, then a sample of the others. The call rests on the fitted dose curve; in most records, active means well fitted inhibition curve with a large enough effect; inconclusive means small, poorly fitted or top-dose-only effect, or effect the other way, or another doubt; inactive means no such curve, though single readings can be large or run the other way. No potency is given beside an inconclusive call; the fits are too rough.
Target: Lysosomal acid glucosylceramidase (Homo sapiens) (UniProt P04062)
Assay: qHTS Assay for Inhibitors and Activators of N370S glucocerebrosidase as a Potential Chaperone Treatment of Gaucher Disease;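 on activity change, negative = inhibition: 0% = full enzyme activity and -100% = no enzyme basal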
Conditions: N370S GC spleen homogenate, 4MU-glucoside fluorescence; activity change, negative = inhibition: at 59.4 µM (top of the series) unless noted
Potency means the concentration at half of the fitted maximal effect.

Compound | Potency | activity change, negative = inhibition
O=C(N/N=C/c1cccnc1)NC12CC3CC(CC(C3)C1)C2 | inconclusive [activator, partial curve] | –
CCN(CC)CCNC(=O)Cn1nc(Cc2cccnc2)c2ccccc2c1=O | inconclusive [inhibitor, single point] | –
COc1ccccc1-c1coc2c(CN3CCCC(C)C3)c(O)ccc2c1=O (stereo not drawn) | inconclusive [activator, partial curve] | –
CCCCNc1c(-c2cccc(-c3cc(C(C)=O)cs3)c2)nc2ccc(C)cn12 | inconclusive [inhibitor, partial curve] | –
COc1ccc(-c2nc3ccccc3nc2-c2ccc(OC)cc2)cc1 | inconclusive [activator, single point] | –
CN(C)c1ccc(N2C(=O)CC(Nc3ccc(N4CCOCC4)cc3)C2=O)cc1 (stereo not drawn) | – | inactive: -2.44%
Cc1cc(NC(=O)Nc2ccc(Cl)cc2)no1 | inconclusive [activator, single point] | –
CC1=C(C(=O)OCc2ccc3c(c2)OCO3)C(c2ccccc2OCc2ccccc2)NC(=O)N1 (stereo not drawn) | inconclusive [inhibitor, partial curve] | –
Cc1cc(=O)[nH]c(SCCCOc2ccccc2Cl)n1 | inconclusive [activator, partial curve] | –
Cc1cc(C)c(C)c(S(=O)(=O)NCc2ccc(C(=O)N3CCCCC3)cc2)c1C | inconclusive [inhibitor, single point] | –
CC(C)(C)c1ccc(OCc2nc(-c3ccccn3)no2)c(Br)c1 | inconclusive [activator, single point] | –
COC(=O)c1c(NC(=O)c2ccc(C)o2)sc2c1CCCCC2 | inconclusive [activator, single point] | –
CCN1CCN(S(=O)(=O)c2ccc(Cl)c(C(=O)N(C)C(c3ccccc3)c3ccccc3)c2)CC1 | inconclusive [inhibitor, single point] | –
Cc1ccc(C(=O)Nc2nc3ccccc3n3nnnc23)cc1 | – | inactive: 2.46%
CC(C)[C@H](NS(=O)(=O)c1ccc2c(c1)OCCO2)C(=O)OCC(=O)Nc1ccccc1 | inconclusive [activator, partial curve] | –
O=C(CN1C(=O)CC(c2ccco2)Sc2ccccc21)NC1CCCCC1 (stereo not drawn) | inconclusive [activator, single point] | –
COc1ccc(C2C(C(=O)NCCN3CCOCC3)c3ccccc3C(=O)N2C)cc1OC (stereo not drawn) | inconclusive [activator, partial curve] | –
Cc1cnc(CNc2ccnc(-c3ccccc3Cl)n2)cn1 | inconclusive [inhibitor, partial curve] | –
OCCNc1nc(NCCC2=CCCCC2)nc(N2CCOCC2)n1 | inconclusive [inhibitor, partial curve, poor fit] | –
O=C(CSc1nccn1-c1ccc(Cl)cc1)Nc1ccc2c(c1)OCO2 | – | inconclusive: 32.6% [activator]

Compound | Potency | activity change, negative = inhibition
CC(C)NCC(O)Cn1c2c(c3ccccc31)CCc1c-2cnn1-c1ccccc1 (stereo not drawn) | – | inactive: -11.7%
O=C1OCCN1C(=O)[C@H]1[C@H](c2ccc(F)cc2)C(c2ccc(F)cc2)=NN1c1ccc(Br)cc1 | inconclusive [activator, partial curve] | –
O=C(CC1CCCCC1)Nc1ncn[nH]1 | – | inconclusive: 27.3% [activator]
CCOc1ccc(NC(=O)Nc2cc(C)on2)cc1 | inconclusive [activator, single point] | –
O=C(Cn1nc(-c2ccccc2)c2ccccc2c1=O)Nc1cccc(O)c1 | inconclusive [inhibitor, partial curve] | –
COC(=O)Cn1c(=NC(=O)c2ccc(OC)cc2)sc2cc(OC)ccc21 | inconclusive [activator, full curve, poor fit] | –
CCCCC12CN3CCN(CC(C3)/C1=N\NC(=O)Nc1ccccc1)C2 | inconclusive [inhibitor, partial curve] | –
CN1C2CCC1CC(OC(=O)c1c[nH]c3ccccc13)C2 (stereo not drawn) | inconclusive [inhibitor, single point] | –
O=C(NCC1CCCCC1)c1cc(S(=O)(=O)N2CCCCC2)ccc1N1CCOCC1 | inconclusive [activator, partial curve] | –
CC(C)(C)c1ccccc1NC(=O)Cn1c(=O)cnc2ccccc21 | inconclusive [inhibitor, partial curve] | –
COC(CNC(=O)CC1C(=O)N(Cc2ccccc2)C(C)c2nc3ccccc3n21)OC (stereo not drawn) | inconclusive [activator, single point] | –
Cc1ccc(OCC(O)CN2CCC(Cc3ccccc3)CC2)c(C)c1 (stereo not drawn) | inconclusive [inhibitor, single point] | –
COc1ccc(OC)c(Nc2ncnc3sc(-c4ccccc4)cc23)c1 | inconclusive [activator, partial curve] | –
Cc1cc2n(n1)C(c1cn(-c3ccccc3)nc1C)Nc1c(C)cccc1-2 (stereo not drawn) | inconclusive [activator, partial curve] | –
Cc1cc(C)nc(N/N=C/c2sccc2C)n1 | – | inactive: -6.94%
Cc1ccc(NC(=O)CSc2nc3ccccc3c(=O)n2CCCN2CCCCC2)cc1C | inconclusive [inhibitor, single point] | –
COc1cc(OC)c2ccc(=O)oc2c1C(CC(=O)N1CCCC1)c1ccc(N(C)C)cc1 (stereo not drawn) | inconclusive [activator, partial curve] | –
FC(F)(F)c1ccc2c(c1)NCC1CCCN21 (stereo not drawn) | – | inactive: 2.58%
NC(=O)c1ccc(N2CCN(c3ccc(O)cc3)CC2)c([N+](=O)[O-])c1 | – | inactive: -9.3%
NNC(=O)Cn1c(COc2ccc(Cl)cc2)nc2ccccc21 | inconclusive [inhibitor, full curve, poor fit] | –

Compound | Potency | activity change, negative = inhibition
CCOc1ccc(-c2nnc(-c3cccs3)o2)cc1OCC | – | inactive: 4.48%
O=C(c1ccccc1)N1N=C(c2ccco2)CC1c1cccs1 (stereo not drawn) | inconclusive [activator, single point] | –
CC(C)CCN(C(=O)CNC(=O)c1cccs1)C(C(=O)NC1CCCC1)c1ccncc1 (stereo not drawn) | – | inactive: -21.1%
COC(=O)C1=C(C)NC(C)=C(C(=O)OCCNCc2ccccc2)C1c1cccc([N+](=O)[O-])c1 (stereo not drawn) | inconclusive [inhibitor, single point] | –
COc1ccc(C(=O)N/N=C/c2sc3ccccc3c2O)cc1 | – | inactive: -3.47%
O=C(Cc1cccc2ccccc12)N/N=C/c1ccc(O)c([N+](=O)[O-])c1 | inconclusive [inhibitor, partial curve] | –
CC(C)c1nc(C#N)c(N2CCOCC2)o1 | inconclusive [inhibitor, full curve, poor fit] | –
O=C(CN1CCN(c2ccc(O)cc2)CC1)Nc1cc([N+](=O)[O-])ccc1Cl | – | inactive: -3.48%
CCCCc1ccc(NC(=O)CSc2nc(=O)n(CCN(CC)CC)c3c2CCCC3)cc1 | inconclusive [inhibitor, single point] | –
CCc1ccc(NC(=O)c2cnc3n(c2=O)CCS3)cc1 | inconclusive [activator, partial curve] | –
COc1ccc(NC(=O)CSc2nc3ccccc3nc2N2CCCC2)cc1 | inconclusive [activator, single point] | –
CCCCCn1c(SCc2cccc(C)c2)nc2c1c(=O)[nH]c(=O)n2C | inconclusive [activator, partial curve] | –
CCCCOc1ccccc1C1C(C(=O)OC)=CN(CC)C=C1C(=O)OC | inconclusive [activator, partial curve] | –
CCCCN(CC)S(=O)(=O)N1CCC(C(=O)NCc2ccc(F)cc2)CC1 | inconclusive [inhibitor, single point] | –
COC(=O)c1nnn(CC(=O)NC(=O)Nc2cccc(C)c2C)c1C(=O)OC | inconclusive [inhibitor, single point] | –
CCn1c(SCC(=O)Nc2ccc(Cl)cc2)nc2nc3c(cc2c1=O)CCCC3 | inconclusive [activator, partial curve] | –
CCN(CCN1CCCC1)C(=O)c1cc(COc2ccccc2SC)on1 | – | inactive: -5.94%
COc1cc(/C=N/NC(=O)C(C)Nc2n[nH]c(=O)[nH]c2=O)ccc1O (stereo not drawn) | inconclusive [inhibitor, partial curve] | –
